Where two headings read alike, the source gives them in different places.
Experiments:
[1] = target: T1, human Claudin18.2 (CLDN18.2), full length, on cells (human); test: cell-based or functional assay
[2] = target: T1, human Claudin18.2 (CLDN18.2), full …; test: cell-based or functional assay; remark: listed apart in the source
[3] = target: T1, human Claudin18.2 (CLDN18.2), full …; test: FACS on NUGC4 cells, positive rate
Protocol: The effect of the Fc-mutated humanized antibody on the binding to the target CLDN18.2 was identified by FACS. NUGC4 cells were digested using the gastric cancer cell digestion solution at 37° C. for 15 minutes; terminated by the complete culture medium, centrifuged at 1000 rpm for 5 minutes, the supernatant was discarded; the cells were resuspended with 2% fetal bovine serum-PBS diluent, the cells were adjusted to 1×10⁶ cells/ml, 100 μl of cell suspension was added to each well of the 96-well U-shaped-bottom plate; the antibody was diluted with 2% fetal bovine serum-PBS to final concentrations of 5 μg/ml, 1 μg/ml, 0.2 μg/ml, 0.04 μg/ml and 0.008 μg/ml, mixed with the cells in equal volume, incubated at 4° C. for 1 hour; centrifuged at 1000 rpm for 5 minutes, the supernatant was discarded; 200 μl of Cell Stain Buffer (Biolegend) was added to each well to wash twice, centrifuged at 1000 rpm for 5 minutes at each time and the supernatant was discarded; 100 μl of PE-anti human Fc antibody (Biolegend) was added, incubated at 4° C. for 1 hour; washed twice using Cell Stain Buffer (Biolegend), centrifuged at 1000 rpm for 5 minutes at each time and the supernatant was discarded. 300 μl of Cell Stain Buffer was added to resuspend the cells, detected with BD FACS Jazz flow analyzer.

[4] = target: T1, human Claudin18.2 (CLDN18.2), full …; test: FACS on CHO-K1-CLDN18.2 cells, Graphpad fit
Protocol: (§1) CHO-K1-CLDN18.2 cells and CHO-K1-CLDN18.1 cells (prepared in Example 5) were digested with gastric cancer cell digestion solution at 37° C. for 15 minutes, respectively; terminated with complete culture medium, centrifuged at 1000 rpm for 5 minutes, the supernatant was discarded; the cells were resuspended with 2% fetal bovine serum-PBS diluent, the cells were adjusted to 1×10⁶ cells/ml, 100 μl of cell suspension was added to each well of the 96-well U-shaped-bottom plate; 2% fetal bovine serum-PBS was used to dilute the humanized antibody and the control antibody to final concentrations of 10 μg/ml, 2 μg/ml, 0.4 μg/ml, 0.08 μg/ml and 0.016 μg/ml, respectively, mixed well with the cells in equal volume, incubated at 4° C. for 1 hour; centrifuged at 1000 rpm for 5 minutes, the supernatant was discarded; 200 μl Cell Stain Buffer (Biolegend) was added to each well to wash twice, centrifuged at 1000 rpm for 5 minutes at each time and the supernatant was discarded; 100 μl of PE-anti human Fc antibody (Biolegend) was added, incubated at 4° C. for 1 hour; washed with Cell Stain Buffer (Biolegend) twice, centrifuged at 1000 rpm for 5 minutes at each time and the supernatant was discarded. 300 μl Cell Stain Buffer was added to resuspend the cells, and detected by BD FACS Jazz flow cytometry analyzer. […]

[5] = target: T1, human Claudin18.2 (CLDN18.2), full …; test: FACS on CHO-K1-CLDN18.2 cells, ratio of fitted Kd
Protocol: as §1

[6] = target: T1, human Claudin18.2 (CLDN18.2), full …; test: FACS on CHO-K1-CLDN18.2 cells, relative Kd from Graphpad fit
Protocol: as §1

[7] = target: T2, antigen protein Claudin18.2-His (human, UniProt P56856-2 1-261, limits assumed); test: BLI (Fortebio Octet RED96), antibody on AHC sensor, CLDN18.2 protein in solution, 37 °C
T2 construct: also called CLDN18.2 protein
Protocol: Another method is to verify the affinity of the humanized antibody above at the protein level. The antibody was immobilized by the AHC sensor, and combined with different concentrations of antigens, and affinity determination was performed according to the manual of Octet RED96.

- ADCC activity by luciferase labeling, EC50 [1]: 0.12 nM
- ADCC activity by luciferase labeling, Top [1]: 68300
- ADCC activity by luciferase labeling, EC50 [2]: 0.45 nM
- ADCC activity by luciferase labeling, Top [2]: 89800
- EC50 [3]: 0.8 nM
- Top (%) [3]: 92.1%
- Bmax (MFI) [4]: 11300 MFI
- fold higher binding activity than IMAB362-similar-hG1 [5]: ~15 fold
- Kd [6]: 1.7 nM
- Kd [7]: 0.526 nM
- koff [7]: 9.22e-05 s⁻¹
- kon [7]: 175000 M⁻¹ s⁻¹
B1: Hu330-1 (antibody, human IgG1, kappa)
heavy: EVQLVESGGGLVQPGGSLRLSCAASGFGFSDYGMAWVRQAPGKGLEWVSFISNSAYSIYYADTVTGRFTISRDNAKNSLYLQMNSLRAEDTAVYYCARLGRGNSFAYWGQGTLVTVSS[sequence of human IgG1 constant region omitted]
light: DIVMTQSPDSLAVSLGERATINCKSSQSLLNSGNQKNYLTWYQQKPGQPPKLLIYWGSTRESGVPDRFSGSGSGTDFTLTISSLQAEDVAVYYCQNELFYPLTFGQGTKLEIKRTVAAPSVFIFPPSDEQLKSGTASVVCLLNNFYPREAKVQWKVDNALQSGNSQESVTEQDSKDSTYSLSSTLTLSKADYEKHKVYACEVTHQGLSSPVTKSFNRGEC
notes: also called humanized antibody Hu330-1

— patent US20220119517A1 (NANJING SANHOME PHARMACEUTICAL, published 2022)
